These results are taken from patent US20210238308A1 (Chugai, published 2021).

In assay [1] the target is T1, human TRIM21 PRYSPRY domain with N-terminal 6xHis tag (human).
T1 construct: Expressed from pET28a in E. coli; also called hTRIM21
T1 chain: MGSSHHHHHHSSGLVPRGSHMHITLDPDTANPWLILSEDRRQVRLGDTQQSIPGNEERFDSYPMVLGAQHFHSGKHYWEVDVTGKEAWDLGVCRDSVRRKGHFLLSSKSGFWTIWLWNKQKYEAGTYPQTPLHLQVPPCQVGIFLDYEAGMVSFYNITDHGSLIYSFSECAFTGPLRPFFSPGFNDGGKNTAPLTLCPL
Briefly: SPR, Ab captured on Protein L. A general note: Surface plasmon resonance follows binding to a sensor surface in real time, without labels.

The target in assay [2] is T1, human TRIM21 PRYSPRY domain with …. Briefly: SPR, Ab captured on Protein L, hTRIM21 12.5-200 nM.

B1: 3D8VH-G1m/hT4VL-KT0.Avi E345K (antibody, human IgG1, kappa)
heavy: EVQLVESGGGLVQPGGSLRLSCAASGYTFTSYVMHWVRQAPGKGLEWVSAINPYNDGNYYADSVKGRFTISRDNSRKTLYLQMNSLRAEDTAVYYCARGAYKRGYAMDYWGQGTTVTVSSASTKGPSVFPLAPSSKSTSGGTAALGCLVKDYFPEPVTVSWNSGALTSGVHTFPAVLQSSGLYSLSSVVTVPSSSLGTQTYICNVNHKPSNTKVDKKV[human IgG1 Fc with E345K (EU numbers) omitted here]
light: [about 200 residues omitted here]GGGGSGLNDIFEAQKIEWHE
Turning to B1, the binding result in assay [1] is listed as “no binding (tested: 200 nM)”.

B2: 3D8VH-G1m/hT4VL-KT0.Avi T437L (antibody, human IgG1, kappa)
heavy: EVQLVESGGGLVQPGGSLRLSCAASGYTFTSYVMHWVRQAPGKGLEWVSAINPYNDGNYYADSVKGRFTISRDNSRKTLYLQMNSLRAEDTAVYYCARGAYKRGYAMDYWGQGTTVTVSSASTKGPSVFPLAPSSKSTSGGTAALGCLVKDYFPEPVTVSWNSGALTSGVHTFPAVLQSSGLYSLSSVVTVPSSSLGTQTYICNVNHKPSNTKVDKKV[human IgG1 Fc with T437L (EU numbers) omitted here]
light: [about 200 residues omitted here]GGGGSGLNDIFEAQKIEWHE
In assay [2], B2 had a Kd of 26.3 nM, a dissociation rate constant (koff) of 0.0034 s⁻¹ and a kon of 129000 M⁻¹ s⁻¹.

B3: 3D8VH-G1m/hT4VL-KT0.Avi Q438G (antibody, human IgG1, kappa)
heavy: EVQLVESGGGLVQPGGSLRLSCAASGYTFTSYVMHWVRQAPGKGLEWVSAINPYNDGNYYADSVKGRFTISRDNSRKTLYLQMNSLRAEDTAVYYCARGAYKRGYAMDYWGQGTTVTVSSASTKGPSVFPLAPSSKSTSGGTAALGCLVKDYFPEPVTVSWNSGALTSGVHTFPAVLQSSGLYSLSSVVTVPSSSLGTQTYICNVNHKPSNTKVDKKV[human IgG1 Fc with Q438G (EU numbers) omitted here]
light: [about 200 residues omitted here]GGGGSGLNDIFEAQKIEWHE
Take B3: in assay [2], the Kd is 89 nM, the koff worked out at 0.45 s⁻¹ and the kon was 5.06e+06 M⁻¹ s⁻¹.

B4: 3D8VH-G1m/hT4VL-KT0.Avi Y436D (antibody, human IgG1, kappa)
heavy: EVQLVESGGGLVQPGGSLRLSCAASGYTFTSYVMHWVRQAPGKGLEWVSAINPYNDGNYYADSVKGRFTISRDNSRKTLYLQMNSLRAEDTAVYYCARGAYKRGYAMDYWGQGTTVTVSSASTKGPSVFPLAPSSKSTSGGTAALGCLVKDYFPEPVTVSWNSGALTSGVHTFPAVLQSSGLYSLSSVVTVPSSSLGTQTYICNVNHKPSNTKVDKKV[human IgG1 Fc with Y436D (EU numbers) omitted here]
light: [about 200 residues omitted here]GGGGSGLNDIFEAQKIEWHE
In assay [2], B4 registered a Kd of 23.8 nM, an off-rate (koff) of 0.0036 s⁻¹ and a kon of 151000 M⁻¹ s⁻¹.

B5: 3D8VH-G1m/hT4VL-KT0.Avi H433A (antibody, human IgG1, kappa)
heavy: EVQLVESGGGLVQPGGSLRLSCAASGYTFTSYVMHWVRQAPGKGLEWVSAINPYNDGNYYADSVKGRFTISRDNSRKTLYLQMNSLRAEDTAVYYCARGAYKRGYAMDYWGQGTTVTVSSASTKGPSVFPLAPSSKSTSGGTAALGCLVKDYFPEPVTVSWNSGALTSGVHTFPAVLQSSGLYSLSSVVTVPSSSLGTQTYICNVNHKPSNTKVDKKV[human IgG1 Fc with H433A (EU numbers) omitted here]
light: [about 200 residues omitted here]GGGGSGLNDIFEAQKIEWHE
As for B5, the binding result in assay [1] is on record as “no binding (tested: 200 nM)”.

B6: 3D8VH-G1m/hT4VL-KT0.Avi T437V (antibody, human IgG1, kappa)
heavy: EVQLVESGGGLVQPGGSLRLSCAASGYTFTSYVMHWVRQAPGKGLEWVSAINPYNDGNYYADSVKGRFTISRDNSRKTLYLQMNSLRAEDTAVYYCARGAYKRGYAMDYWGQGTTVTVSSASTKGPSVFPLAPSSKSTSGGTAALGCLVKDYFPEPVTVSWNSGALTSGVHTFPAVLQSSGLYSLSSVVTVPSSSLGTQTYICNVNHKPSNTKVDKKV[human IgG1 Fc with T437V (EU numbers) omitted here]
light: [about 200 residues omitted here]GGGGSGLNDIFEAQKIEWHE
Regarding B6, in assay [2], the Kd was determined as 27.2 nM, the koff was determined as 0.00329 s⁻¹ and the kon came out at 121000 M⁻¹ s⁻¹.

B7: 3D8VH-G1m/hT4VL-KT0.Avi T437D (antibody, human IgG1, kappa)
heavy: EVQLVESGGGLVQPGGSLRLSCAASGYTFTSYVMHWVRQAPGKGLEWVSAINPYNDGNYYADSVKGRFTISRDNSRKTLYLQMNSLRAEDTAVYYCARGAYKRGYAMDYWGQGTTVTVSSASTKGPSVFPLAPSSKSTSGGTAALGCLVKDYFPEPVTVSWNSGALTSGVHTFPAVLQSSGLYSLSSVVTVPSSSLGTQTYICNVNHKPSNTKVDKKV[human IgG1 Fc with T437D (EU numbers) omitted here]
light: [about 200 residues omitted here]GGGGSGLNDIFEAQKIEWHE
In assay [2], B7 yielded a Kd of 12.5 nM, a koff of 0.03 s⁻¹ and a kon of 2.4e+06 M⁻¹ s⁻¹.

B8: 3D8VH-G1m/hT4VL-KT0.Avi S440H (antibody)
heavy: EVQLVESGGGLVQPGGSLRLSCAASGYTFTSYVMHWVRQAPGKGLEWVSAINPYNDGNYYADSVKGRFTISRDNSRKTLYLQMNSLRAEDTAVYYCARGAYKRGYAMDYWGQGTTVTVSSASTKGPSVFPLAPSSKSTSGGTAALGCLVKDYFPEPVTVSWNSGALTSGVHTFPAVLQSSGLYSLSSVVTVPSSSLGTQTYICNVNHKPSNTKVDKKV[human IgG1 Fc with S440H (EU numbers) omitted here]
light: [about 200 residues omitted here]GGGGSGLNDIFEAQKIEWHE
As for B8, in assay [2], binding was characterised by a dissociation constant (Kd) of 54.6 nM, the off-rate constant (koff) came to 0.265 s⁻¹ and the kon is 4.85e+06 M⁻¹ s⁻¹.

B9: 3D8VH-G1m/hT4VL-KT0.Avi H435A (antibody, human IgG1, kappa)
heavy: EVQLVESGGGLVQPGGSLRLSCAASGYTFTSYVMHWVRQAPGKGLEWVSAINPYNDGNYYADSVKGRFTISRDNSRKTLYLQMNSLRAEDTAVYYCARGAYKRGYAMDYWGQGTTVTVSSASTKGPSVFPLAPSSKSTSGGTAALGCLVKDYFPEPVTVSWNSGALTSGVHTFPAVLQSSGLYSLSSVVTVPSSSLGTQTYICNVNHKPSNTKVDKKV[human IgG1 Fc with H435A (EU numbers) omitted here]
light: [about 200 residues omitted here]GGGGSGLNDIFEAQKIEWHE
As to B9, the binding result in assay [1] is listed as “no binding (tested: 200 nM)”.

B10: 3D8VH-G1m/hT4VL-KT0.Avi Y436T (antibody, human IgG1, kappa)
heavy: EVQLVESGGGLVQPGGSLRLSCAASGYTFTSYVMHWVRQAPGKGLEWVSAINPYNDGNYYADSVKGRFTISRDNSRKTLYLQMNSLRAEDTAVYYCARGAYKRGYAMDYWGQGTTVTVSSASTKGPSVFPLAPSSKSTSGGTAALGCLVKDYFPEPVTVSWNSGALTSGVHTFPAVLQSSGLYSLSSVVTVPSSSLGTQTYICNVNHKPSNTKVDKKV[human IgG1 Fc with Y436T (EU numbers) omitted here]
light: [about 200 residues omitted here]GGGGSGLNDIFEAQKIEWHE
For B10, in assay [2], the Kd turned out to be 17.7 nM, the koff was 0.0242 s⁻¹ and the kon is 1.37e+06 M⁻¹ s⁻¹.

B11: 3D8VH-G1m/hT4VL-KT0.Avi H433L (antibody, human IgG1, kappa)
heavy: EVQLVESGGGLVQPGGSLRLSCAASGYTFTSYVMHWVRQAPGKGLEWVSAINPYNDGNYYADSVKGRFTISRDNSRKTLYLQMNSLRAEDTAVYYCARGAYKRGYAMDYWGQGTTVTVSSASTKGPSVFPLAPSSKSTSGGTAALGCLVKDYFPEPVTVSWNSGALTSGVHTFPAVLQSSGLYSLSSVVTVPSSSLGTQTYICNVNHKPSNTKVDKKV[human IgG1 Fc with H433L (EU numbers) omitted here]
light: [about 200 residues omitted here]GGGGSGLNDIFEAQKIEWHE
Turning to B11, the binding result in assay [1] is “no binding (tested: 200 nM)”.

A word on the Kd: it is the equilibrium constant for the complex coming apart. Higher therefore signals a looser complex. In general, koff refers to the rate constant with which the complex falls apart. In general, kon refers to a measure of how fast the partners come together. Read a high kon as faster complex formation.
